Test results from the RNAGym collection of RNA variant scans (doi:10.1073/pnas.2313332121).
This sample is rich in variants without activity.

B1: TPR 5TU (parent)
chain: GGAUCUUCUCGAUCUAACAAAAAAGACAAAUCUGCCACAAAGCUUGAGAGCAUCUUCGGAUGCAGAGGCGGCAGCCUUCGGUGGCGCGAUAGCGCCAACGUUCUCAACUAUGACACGCAAAACGCGUGCUCCGUUGAAUGGAGUUUAUCAUG

Variants of: B1
Experiment: polymerase ribozyme fitness, log enrichment relative to wild type (log ratio); higher = more active; in vitro selection for triplet polymerase activity
How it was run: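 Genotype fitness is the logarithm of its enrichment divided by wild-type enrichment, using inverse-variance-weighted averages of replicates. That logarithm is base 2. Enrichment was measured by Illumina sequencing of input and output libraries from one triplicate in vitro selection round, with frozen incubation at −7 °C, on PCR-built, transcribed mutant libraries of each subunit of a heterodimeric triplet polymerase ribozyme, retaining genotypes with ≥10 input reads and ≥1 read per output.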

| Variant | polymerase ribozyme fitness (log ratio) |
| --- | --- |
| A40U C72G C76A | ≤ -4.2 |
| A40U C76A C79A C114U G143U U146C U148A | ≤ -4.2 |
| A40U C87U | -0.375 |
| A40U C96U C105A A147C | ≤ -4.2 |
| A40U G46A G50C C87G G92U G126A U148A | ≤ -4.2 |
| A40U G48A C75A A107U A138U G141A | ≤ -4.2 |
| A40U G59U C85A G88A C95A U101G G152C | ≤ -4.2 |
| A40U G67U C76G G128C G141U A142C | ≤ -4.2 |
| A40U G68A C116A A137U | ≤ -4.2 |
| A40U G68C C96U C105A | ≤ -4.2 |
| A40U G74U | ≤ -4.2 |
| A40U G80A C96A C99A U109A C118U U127G | ≤ -4.2 |
| A40U G86A | -0.914 |
| A40U G88A C93U U134G U139G | ≤ -4.2 |
| A40U G94A A107U | ≤ -4.2 |
| A40U U53C | 0.103 |
| A40U U55A G59A C79U U82G G83A G128A U139G G143A | ≤ -4.2 |
| A40U U55G C95U C105G C116G | -3.94 |
| A40U U56A G80C G84U C99A G143U | ≤ -4.2 |
| A40U U61A C79A U104G | ≤ -4.2 |
| A40U U61G G65A C75U C79U A98U C123G C125A U144C | ≤ -4.2 |
| A40U U77G G80A C129A U148A | ≤ -4.2 |
| A40U U82G G92A | -2.82 |
| A41C A47C G80C G84U G128A G136C | ≤ -4.2 |

| Variant | polymerase ribozyme fitness (log ratio) |
| --- | --- |
| A41C A47G G68A | ≤ -4.2 |
| A41C A49C C87U A113U U144G U151C | ≤ -4.2 |
| A41C A49C G62A G74U A121G U146C | ≤ -4.2 |
| A41C A49G C99G C116U | ≤ -4.2 |
| A41C A66G C79A C118U G126C | ≤ -4.2 |
| A41C A89U G92A U102G U148C | ≤ -4.2 |
| A41C A91G | -2.85 |
| A41C A97G A121G | -0.295 |
| A41C A106C | -0.881 |
| A41C A107C G133A U144G | ≤ -4.2 |
| A41C A107U C108G | ≤ -4.2 |
| A41C A120U | -0.45 |
| A41C C43A A64U C72U A91U C105A A107U | ≤ -4.2 |
| A41C C43G C51A C99A A137C A147C | ≤ -4.2 |
| A41C C51A U61G G67U C76U C99A | ≤ -4.2 |
| A41C C54U A60U U135G | ≤ -4.2 |
| A41C C57U A89U G92C C116G C125A | ≤ -4.2 |
| A41C C63G G92U | -0.619 |
| A41C C69A | -2.53 |
| A41C C75G C87U | ≤ -4.2 |
| A41C C75G U90G C95G | ≤ -4.2 |
| A41C C79G G94A C99A | ≤ -4.2 |
| A41C C85A C105G G126U | -3.3 |
| A41C C85G A113C | -4.19 |

| Variant | polymerase ribozyme fitness (log ratio) |
| --- | --- |
| A41C C87G G100C G126A A142C | ≤ -4.2 |
| A41C C93G G94A U148G | ≤ -4.2 |
| A41C C93U A97C U102G | ≤ -4.2 |
| A41C C95A | -0.7 |
| A41C C95U | -2.15 |
| A41C C96A | -0.56 |
| A41C C99G | -0.603 |
| A41C C103A | -1.44 |
| A41C G42A A52C U56A G94A C96U A110C | ≤ -4.2 |
| A41C G46U A47C C93U A107G A115U G143A | ≤ -4.2 |
| A41C G50A A52C C54U U56A C75U C87U U146G A150G | ≤ -4.2 |
| A41C G50A G74A U82G C95U A107C | ≤ -4.2 |
| A41C G50A G81A C87U C93G | ≤ -4.2 |
| A41C G58U G59A G65A A66U G124U | ≤ -4.2 |
| A41C G65A A66U U144A | ≤ -4.2 |
| A41C G65C C79G G117C | ≤ -4.2 |
| A41C G67A U148C | ≤ -4.2 |
| A41C G70A G94C C105G A110G | ≤ -4.2 |
| A41C G71A C76U G92A G117A | ≤ -4.2 |
| A41C G80C | -4.11 |
| A41C G80U C93A C95U G100C A122C A142G | ≤ -4.2 |
| A41C G81C A107U C118U G126A G140C | ≤ -4.2 |
| A41C G81U G86U U104C | -1.73 |
| A41C G84U C87G | ≤ -4.2 |

| Variant | polymerase ribozyme fitness (log ratio) |
| --- | --- |
| A41C U44A G83A | ≤ -4.2 |
| A41C U44A G126U G133C G141C | ≤ -4.2 |
| A41C U44G A60U C87G | ≤ -4.2 |
| A41C U44G A66C A107G | ≤ -4.2 |
| A41C U45G U53A G83C A91U C93U A115G U144A | ≤ -4.2 |
| A41C U53A U56A A66C C79G G84U | ≤ -4.2 |
| A41C U53G G88A | ≤ -4.2 |
| A41C U55A C85G G86C C103G G143A | ≤ -4.2 |
| A41C U55A G94A G112U U134A | ≤ -4.2 |
| A41C U55G A66G C87U | ≤ -4.2 |
| A41C U61A G86A G112A A115G | ≤ -4.2 |
| A41C U127C | -2.04 |
| A41C U135G | -3.54 |
| A41G A47G U56A C63U A73U C105U C125U | ≤ -4.2 |
| A41G A49C U55G G88C A119G G126A | ≤ -4.2 |
| A41G A49U G59U C85A C105U A106G A121U U134C | ≤ -4.2 |
| A41G A73U U78A C85A G117C | ≤ -4.2 |
| A41G A98U C103G A138C | ≤ -4.2 |
| A41G C51U A89C C95A U135C U148A | ≤ -4.2 |
| A41G C54A A60G C75A C87U G94A | ≤ -4.2 |
| A41G C54G G81A C96G C118U | ≤ -4.2 |
| A41G C54G G117U G124C | -1.19 |
| A41G C54G U104A A119G G126U | -1.16 |
| A41G C63G G68U C85U A137U | ≤ -4.2 |

| Variant | polymerase ribozyme fitness (log ratio) |
| --- | --- |
| A41G C63G G74A U109G U145G | ≤ -4.2 |
| A41G C75A U82C A98U U104A U135G | ≤ -4.2 |
| A41G C76A U77G G112A C116U A142C | ≤ -4.2 |
| A41G C76G A91U G126A G136A | ≤ -4.2 |
| A41G C96A | 0.0745 |
| A41G G42A G50C C63G A66C G88U C96U G133U U146C U151C | ≤ -4.2 |
| A41G G42U A66U G74A U151G | ≤ -4.2 |
| A41G G50C U53G G67U G86C G128U C129U U146G C149U | ≤ -4.2 |
| A41G G59A G81U C95A C114U | -1.27 |
| A41G G71C G74U C93U A98G | ≤ -4.2 |
| A41G G83C G143C | -3.18 |
| A41G G88U C131G | ≤ -4.2 |
| A41G G143U | -1.73 |
| A41G U44A U61C C75U A142C | ≤ -4.2 |
| A41G U45A A91C G94A C116A C123U C131A | ≤ -4.2 |
| A41G U53A U56C C76A A98G | -1.92 |
| A41G U104G C125G | -1.21 |
| A41U A49G A52C G84A C103G A115U | ≤ -4.2 |
| A41U A52C A66C A98G C103G U139A | ≤ -4.2 |
| A41U A89U C93U G117U A147U | -2.89 |
| A41U A91U G140A | ≤ -4.2 |
| A41U A120C C125A A142C | -4.12 |
| A41U C54A C96U U101C U109G U139A | ≤ -4.2 |
| A41U C54U G88U U148A | ≤ -4.2 |

| Variant | polymerase ribozyme fitness (log ratio) |
| --- | --- |
| A41U C57U G80A | -1.12 |
| A41U C72G U90G C99G G112U C118U | ≤ -4.2 |
| A41U C72U G94A C99G | ≤ -4.2 |
| A41U C76U C96G C105G U134G | ≤ -4.2 |
| A41U C87U A137U G143U | ≤ -4.2 |
| A41U C95U C99U G141C | -2.51 |
| A41U C103G G128U | ≤ -4.2 |
| A41U G42A G68U G94U A98G C118A A119U | ≤ -4.2 |
| A41U G42C U44A A60U C69U A91C C96U U134G | ≤ -4.2 |
| A41U G42U G50A G59A C87U G133U | ≤ -4.2 |
| A41U G46C G68A U104G | ≤ -4.2 |
| A41U G50U A64U C118G A150C | ≤ -4.2 |
| A41U G58A C85U A110U G124C A147U | ≤ -4.2 |
| A41U G58A G59A G88A | ≤ -4.2 |
| A41U G59A A73G A89U C93G A107G | ≤ -4.2 |
| A41U G59U A60C C72U C87A A138U | ≤ -4.2 |
| A41U G59U A60C C72U C87A G124C | ≤ -4.2 |
| A41U G83A | -0.754 |
| A41U G83A A150U | -0.63 |
| A41U G83U A150U | -1.02 |
| A41U G83U G84U A98U A120U G124A | -3.95 |
| A41U U44G U56A A91C A142C | ≤ -4.2 |
| A41U U55A C79U G83A | ≤ -4.2 |
| A41U U55A G81C C114G | ≤ -4.2 |

| Variant | polymerase ribozyme fitness (log ratio) |
| --- | --- |
| A41U U55A U56G G83A A121G U148C | ≤ -4.2 |
| A41U U56A C93A A121U | -3.16 |
| A41U U82G G86U A97U G124C | -3.18 |
| G42A A47G C54G G94C C103A | ≤ -4.2 |
| G42A A49C A66C | ≤ -4.2 |
| G42A A52G U55A C79G A89U C95U C114U G133U U144C | ≤ -4.2 |
| G42A A60C C63A | ≤ -4.2 |
| G42A A91U A122C | ≤ -4.2 |
| G42A A97G | ≤ -4.2 |
| G42A A98G A142U | ≤ -4.2 |
| G42A C43A U82A A98G | ≤ -4.2 |
| G42A C54A G86A G141A | ≤ -4.2 |
| G42A C54U C93G A120U G140U | ≤ -4.2 |
| G42A C54U G117A | ≤ -4.2 |
| G42A C57G G92U U102G C114U A121C | ≤ -4.2 |
| G42A C79G U144C | ≤ -4.2 |
| G42A C85A C125A | ≤ -4.2 |
| G42A C85U | ≤ -4.2 |
| G42A C93U | ≤ -4.2 |
| G42A C96G U101G C131A A147C U148C | ≤ -4.2 |
| G42A G46C U55A U82G A89U C95A A98U U111A U139G | ≤ -4.2 |
| G42A G48U A52U C75A U90C | ≤ -4.2 |
| G42A G50U A73C A91C G92C C95G U127A U144C | ≤ -4.2 |
